# From PubChem BioAssay AID540317 (National Center for Advancing Translational Sciences (NCATS), 2011)
# “And” between values parts separate entries of the source, which are not always exact repeats. Equal values may be shown once. Among all 390,000 compounds or so, about 2,200 (0.56%) were called active. This list was built around the results that the source calls inconclusive (neither active nor inactive); the mix of calls is not that of the screen. The call rests on the fitted dose curve; in most records, active means well fitted inhibition curve with a large enough effect; inconclusive means small, poorly fitted or top-dose-only effect; inactive means no such curve, though single readings can be large or run the other way. Where the call is inconclusive, the potency comes from a doubtful curve fit.
# Molecular target: Chromobox protein homolog 1 (Homo sapiens) (UniProt P83916)
# Chain of UniProt P83916 (P83916 whole entry, looked up): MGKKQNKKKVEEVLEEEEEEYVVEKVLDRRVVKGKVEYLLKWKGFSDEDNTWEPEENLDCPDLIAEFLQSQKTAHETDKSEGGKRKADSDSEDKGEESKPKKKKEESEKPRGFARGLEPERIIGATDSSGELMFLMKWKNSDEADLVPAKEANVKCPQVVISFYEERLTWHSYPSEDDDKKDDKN
# Experiment: HTS for Inhibitors of HP1-beta Chromodomain Interactions with Methylated Histone Tails; further: nearly all actives have a fitted effect of over 70% in size
# Details: AlphaScreen HP1-beta / biotin-H3K9me3 peptide binding; series mostly up to 114 µM; activity change, negative = inhibition: at the top concentration
# Summary of the method: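 HP1-beta protein (50 nM final) preincubated 30 min at room temperature with biotinylated H3(1-18)K9me3 peptide (50 nM) in PBS pH 7.4, 0.01% Tween-20, then compound added for 30 min. AlphaScreen streptavidin donor/nickel chelate acceptor beads (10 ug/mL final), 30 min dark, luminescence read.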
# Potency means the concentration at half of the fitted maximal effect; tags describe the fitted curve by direction and shape.
Structure (SMILES),Potency,"activity change, negative = inhibition"
O=C(c1coc(=O)c(Br)c1)N1CCOCC1,"inconclusive: 70.8 µM [inhibitor, single point]",
CC(=O)Nc1sc2c(c1C(c1ccc(Cl)cc1)N1CCOCC1)CCCC2 (stereo unspecified),"inconclusive: 28.2 µM [inhibitor, single point]",
Cc1c(C(=O)O)[nH]c2ccc([N+](=O)[O-])cc12,"inconclusive: 44.7 µM [inhibitor, partial curve]",
Cc1ccc(C)c2c1NC(C(=O)O)C1CC=CC21 (stereo unspecified),active: 22.4 µM,
O=[N+]([O-])c1cccnc1Sc1ccc(Br)cc1,"inconclusive: 50.1 µM [inhibitor, partial curve]",
N#C/C(=C\c1cn(-c2ccccc2)nc1-c1cccnc1)c1nnc2n1CCCCC2,,inactive: 14.6%
COc1ccc(/C=C2/SC(=S)N(c3ccc(S(=O)(=O)Nc4nccs4)cc3)C2=O)cc1,active: 20 µM,
COc1ccc(OC)c(NC(=O)c2ccc(OC3CSC3)cc2)c1,"inconclusive: 44.7 µM [inhibitor, partial curve]",
COc1cc(C(=O)N2CCN(CCc3ccccn3)CC2)cc(OC)c1OC,"inconclusive: 89.1 µM [inhibitor, single point]",
CCCCC1=CC2=CC(=O)C(C)(OC(=O)CC)C(=O)C2=CO1 (stereo unspecified),"inconclusive: 44.7 µM [inhibitor, partial curve, poor fit]",
CSc1ncc(Cl)c(C(=O)N(Cc2ccc(N(C)C)cc2)Cc2ccco2)n1,"inconclusive: 14.1 µM [inhibitor, full curve, poor fit]",
Cc1c(C)n(C)c2ccc(C(=O)N3CCN(c4ccccc4)CC3)cc12,"inconclusive: 50.1 µM [inhibitor, partial curve] and inconclusive: 22.4 µM [inhibitor, partial curve, poor fit]",
C(=C\c1nc(N2CCCCCC2)c2ccccc2n1)/c1ccccc1,,inactive: 107%
CCCn1c(=O)c2sccc2n2c(CCCC(=O)NCc3ccco3)nnc12,"inconclusive: 44.7 µM [inhibitor, partial curve]",
Cc1ccc(S(=O)(=O)Nc2ccc(N=Nc3ccc(O)cc3)cc2)cc1,"inconclusive: 50.1 µM [inhibitor, partial curve]",
CCOc1ccccc1OCCOCCOc1c(Cl)cccc1Cl,,inactive: 148%
COc1ccc(/C=N\NC(=O)c2cc(O)c(O)c(O)c2)cc1CN1CCN(c2ccc(F)cc2)CC1,"inconclusive: 50.1 µM [inhibitor, partial curve]",
Cc1cccc(N=Cc2[nH]c3ccc(Br)c(Cl)c3c2O)c1,"inconclusive: 39.8 µM [inhibitor, partial curve]",
COc1ccc(CN2CCC(n3nccc3NC(=O)CCc3ccccc3)CC2)c(C)c1C,,inactive: 40.9%
COC(CNC(=O)c1ccc(N2CCc3ccccc32)c([N+](=O)[O-])c1)OC,"inconclusive: 50.1 µM [inhibitor, partial curve]",
COc1ccc(N(CC(=O)NCCc2cccc(C)c2)S(=O)(=O)c2c(C)nn(C)c2C)cc1,,inactive: 34.2%

Structure (SMILES),Potency,"activity change, negative = inhibition"
COc1nc(N(C)S(=O)(=O)c2ccc(C)cc2)nc(C)c1Br,,inactive: 31.1%
Cc1cc[n+](-c2[nH]c(=O)sc2/C=N/NC([S-])=Nc2ccccc2)cc1C,"inconclusive: 31.6 µM [inhibitor, partial curve]",
O=C(c1noc2c1CCCC2)N1CCCC(N2CCN(c3ccccc3F)CC2)C1 (stereo unspecified),,inactive: 43.8%
COC(=O)c1cccc(Nc2c(-c3ccc(O)c(OC)c3)nc3nc[nH]n23)c1,"inconclusive: 79.4 µM [inhibitor, partial curve, poor fit]",
Oc1ccc(N2CCN(CC(O)c3ccccc3)CC2)cc1 (stereo unspecified),"inconclusive: 79.4 µM [inhibitor, single point]",
CCOc1ccc(NC(=O)C2Cc3ccccc3N2C(=O)c2ccccc2)cc1 (stereo unspecified),,inactive: 56.9%
COC(=O)[C@]1(Cc2ccccc2)N[C@H](CN(C)C(=O)c2ccccc2)[C@@H]2C(=O)N(Cc3ccccc3)C(=O)[C@@H]21,,inactive: 43.2%
O=C(CSC1CCCCC1)N1CCN(c2ccccc2)CC1,"inconclusive: 44.7 µM [inhibitor, partial curve]",
COC(=O)\C(C(C)=O)=C(/C=C/C=C/C=C/N(C)C)N(C)C,"inconclusive: 22.4 µM [inhibitor, full curve, poor fit]",
COC1=CC(=O)C(O)=C(CCCCCCC/C=C/CCCCCCCC2=C(O)C(=O)C=C(OC)C2=O)C1=O,"inconclusive: 17.8 µM [inhibitor, full curve, poor fit]",
Cc1ccc(S(=O)(=O)N2CCN(Cc3cccc(F)c3)CC2)cc1,"inconclusive: 20 µM [inhibitor, full curve]",
O=C(OCC(=O)c1c[nH]c2ccccc12)c1ccc([N+](=O)[O-])s1,"inconclusive: 50.1 µM [inhibitor, partial curve, poor fit]",
CO/N=C(\C(=O)N[C@@H]1C(=O)N2C(C(=O)O)=C(COC(C)=O)CS[C@H]12)c1csc(N)n1 (stereo in doubt),"inconclusive: 17.8 µM [inhibitor, full curve]",
O=C1c2ccccc2C2=Nc3ccccc3SC(c3ccc(Cl)cc3)C12 (stereo unspecified),"inconclusive: 15.8 µM [inhibitor, partial curve, poor fit]",
Cc1c(N2C(=O)/C(=C/c3ccc(N(C)C)cc3)N(C)C2=S)c(=O)n(-c2ccccc2)n1C,"inconclusive: 50.1 µM [inhibitor, partial curve]",
CCOc1ccc(-c2nc(CSCC(=O)N3CCN(c4cccc(OC)c4)CC3)c(C)o2)cc1,"inconclusive: 50.1 µM [inhibitor, partial curve]",
O=C(O)c1ccc(-c2cccc([N+](=O)[O-])c2)o1,,inactive: 24%
CCOC(=O)c1c(N)sc2c1CCS(=O)(=O)C2,"inconclusive: 14.1 µM [inhibitor, partial curve, poor fit]",
CCOc1c(Cl)cc(CNc2nnnn2C)cc1OC,,inactive: 18.1%
C=CCc1ccc(OCCCNC2CCCC2)c(OC)c1,"inconclusive: 79.4 µM [inhibitor, single point]",
